Assay type in all cases: cell-based
One assay relates to E. coli DH5α. The experiment in a line: Antibacterial activity: MIC and growth curve against E. coli DH5α in 96-well plate. Conditions: minimal inhibitory concentration against E. coli DH5α, 5×10^5 CFU/mL, 37° C., judged after 8 h. On the procedure:
1. E. coli DH5α was exemplified. E. coli DH5α was streaked and cultured on LB solid medium. Then, a typical clone was picked and inoculated into common LB liquid medium, cultured at 37° C. with shaking at 185 rpm until the logarithmic growth phase was reached (OD600 of about 0.5). The bacterial culture was centrifuged at 4000×g for 3 min, the supernatant was discarded, and the thalli were resuspended with fresh LB medium.
2. The above-mentioned bacterial suspension was diluted and inoculated into a 96-well plate with the total volume of 100 μL per well and a bacterial count of 5×10^5 CFU/mL.
3. The recombinant protein hF VII-EGF1 was added to the above-mentioned wells with the final protein concentration in the well of the highest protein concentration being 50 μg/mL. Basing on this final concentration, a two-fold serial dilution was performed till a protein concentration gradient consisting of 50, 25, and 12.5 μg/mL was set up. Three parallel wells were set up for each concentration in the gradient.
4. The above-mentioned 96-well plate was placed and cultured at 37° C. in shaking incubator shaking at 175 rpm. Samples were taken every 30 min, the absorbance values were determined at 600 nm wavelength under a ultra violet spectrophotometer, and an inhibition curve was plotted. […] The minimal inhibitory concentration MIC is defined as the lowest concentration of the recombinant protein at which there is no growth of the bacteria.
According to the experimental procedures in Example 14, the minimal inhibitory concentrations (MIC, μg/mL) of the other human-originated EGF domain proteins (PRT2 to PRT1498 in Table 1) for E. coli DH5α were determined.

The test system of another assay is E. coli BL21. The experiment in a line: MIC against Gram-negative bacteria: E. coli BL21. The note with it: for MIC: E. coli BL21, 10 h cultivation at 37° C. On the procedure: (§1) 1. Gram-negative bacteria, such as E. coli BL21, Pseudomonas aeruginosa, Klebsiella pneumonia, Enterobacter cloacae, Aeromonas hydrophila, Citrobacter diversus, Moraxella catarrhalis, Proteus mirabilis, Proteus vulgaris, Serratia marcescens, etc were streaked on solid LB medium and cultured respectively. Then, typical clones were picked, inoculated into common liquid LB medium respectively, and cultured at 37° C. with shaking at 185 rpm until the McFarland specific turbidity was 0.5. The bacterial culture of each of Gram-negative bacteria was centrifuged at 4000×g for 3 min, the supernatant was discarded, and the thalli were resuspended with fresh LB medium.
(§2) 2. The above-mentioned bacterial suspensions were diluted and inoculated into 96-well plates with the final concentration of the bacterial suspension being 5×10^5 CFU/mL per well.
(§3) 3. Each of the purified human-originated EGF domain proteins (PRT1 to PRT1498 in Table 1) was added to each of the above wells and subjected to two-fold serial dilution in concentration. Three parallel wells were set up for each concentration in the gradient.
(§4) 4. The above-mentioned 96-well plates were placed and cultured at 37° C. in shaking incubator shaking at 175 rpm. […] The minimal inhibitory concentration MIC is defined as the lowest concentration of the recombinant protein at which there is no growth of the bacteria.

The subject of a further assay is Pseudomonas aeruginosa. The assay is described as follows: MIC against Gram-negative bacteria: Pseudomonas aeruginosa. The note with it: for MIC: P. aeruginosa, 10 h cultivation at 37° C. On the procedure: as §1, §2, §3, §4
Another assay deals with Klebsiella pneumonia. The assay is described as follows: MIC against Gram-negative bacteria: Klebsiella pneumonia. The note with it: for MIC: K. pneumonia, 10 h cultivation at 37° C. On the procedure:
as §1, §2, §3, §4

A further assay deals with Enterobacter cloacae. The assay is described as follows: MIC against Gram-negative bacteria: Enterobacter cloacae. Conditions: for MIC: E. cloacae, 10 h cultivation at 37° C. The method, then:
as §1, §2, §3, §4

Another assay deals with Aeromonas hydrophila. The experiment in a line: MIC against Gram-negative bacteria: Aeromonas hydrophila. Conditions: for MIC: A. hydrophila, 10 h cultivation at 37° C. The method, then:
as §1, §2, §3, §4

For another assay, the system named is Citrobacter diversus. The experiment in a line: MIC against Gram-negative bacteria: Citrobacter diversus. Conditions: for MIC: C. diversus, 10 h cultivation at 37° C. On the procedure: as §1, §2, §3, §4
For another assay, the system named is Moraxella catarrhalis. The assay is described as follows: MIC against Gram-negative bacteria: Moraxella catarrhalis. Conditions: for MIC: M. catarrhalis, 10 h cultivation at 37° C. On the procedure: as §1, §2, §3, §4
The test system of another assay is Proteus mirabilis. The assay is described as follows: MIC against Gram-negative bacteria: Proteus mirabilis. The note with it: for MIC: P. mirabilis, 10 h cultivation at 37° C. On the procedure:
as §1, §2, §3, §4

A further assay concerns Proteus vulgaris. The assay is described as follows: MIC against Gram-negative bacteria: Proteus vulgaris. Conditions: for MIC: P. vulgaris, 10 h cultivation at 37° C. The method, then:
as §1, §2, §3, §4

A further assay has as its system Serratia marcescens. The assay is described as follows: MIC against Gram-negative bacteria: Serratia marcescens. Conditions: for MIC: S. marcescens, 10 h cultivation at 37° C. The method, then:
as §1, §2, §3, §4

Where [1] appears, read: 96-well plate, 5×10^5 CFU/mL, 37° C., 10 h.

Experimental findings from patent US9833497B2, “Human originated EGF domain proteins and use of the same” (CHENGDU SOURCEBIO LIMITED-LIABILITY COMPANY, priority 2013, dated 2017) are described below.

As to “PRT993 (DLDECLMAQQGPSPCEHGGSCLNTPGSFNCLCPPGYTGSRCE; listed as Homo sapiens)”, the MIC (in general, the least concentration at which growth counts as inhibited) is 12.5 µg/mL in the assay with E. coli DH5α; 50 µg/mL against E. coli BL21; 12.5 µg/mL against Pseudomonas aeruginosa; 50 µg/mL in the assay on Klebsiella pneumonia; 12.5 µg/mL against Enterobacter cloacae; 50 µg/mL with Aeromonas hydrophila. The MIC is 12.5 µg/mL against Citrobacter diversus; 50 µg/mL against Moraxella catarrhalis; 12.5 µg/mL with Proteus mirabilis; 50 µg/mL in the assay with Proteus vulgaris; 12.5 µg/mL in the assay on Serratia marcescens.

With “PRT980 (NEDDCGPGPPLDSGPRCLHNGTCVDLVGGFRCTCPPGYTGLRCE; listed as Homo sapiens)”, the MIC against E. coli DH5α was determined as 12.5 µg/mL; against E. coli BL21, 50 µg/mL; against Pseudomonas aeruginosa, 12.5 µg/mL; against Klebsiella pneumonia, 50 µg/mL; with Enterobacter cloacae it was 12.5 µg/mL; in the assay on Aeromonas hydrophila, 50 µg/mL. Besides, the MIC against Citrobacter diversus came out at 25 µg/mL; in the assay on Moraxella catarrhalis it was 12.5 µg/mL; in the assay with Proteus mirabilis, 50 µg/mL; with Proteus vulgaris it was 12.5 µg/mL; in the assay with Serratia marcescens, 50 µg/mL.

On to “PRT550 (CDCTPCGTEACDPHSGHCLCKAGVTGRRCDRCQEGHFGFDGCGGCRP; listed as Homo sapiens)”, for which, in the assay with E. coli DH5α, the MIC is 25 µg/mL. Also, the “MIC against E. coli BL21” value in the assay on E. coli BL21 (setting [1]) worked out at 12.5 µg/mL. Also, in the assay with Pseudomonas aeruginosa (setting [1]), the “MIC against P. aeruginosa” value amounted to 25 µg/mL. In the assay on Klebsiella pneumonia (setting [1]), the “MIC against K. pneumonia” value stood at 12.5 µg/mL. The “MIC against E. cloacae” value against Enterobacter cloacae (setting [1]) is 25 µg/mL. The “MIC against A. hydrophila” value against Aeromonas hydrophila (setting [1]) was 12.5 µg/mL. Further, in the assay on Citrobacter diversus (setting [1]), the “MIC against C. diversus” value is 25 µg/mL. Further, the “MIC against M. catarrhalis” value in the assay with Moraxella catarrhalis (setting [1]) turned out to be 12.5 µg/mL. Moreover, in the assay with Proteus mirabilis (setting [1]), the “MIC against P. mirabilis” value amounted to 25 µg/mL. The “MIC against P. vulgaris” value against Proteus vulgaris (setting [1]) stood at 12.5 µg/mL. Besides, the “MIC against S. marcescens” value with Serratia marcescens (setting [1]) turned out to be 25 µg/mL.

Consider “PRT960 (DIDECQSSPCVNGGVCKDRVNGFSCTCPSGFSGSTCQ; listed as Homo sapiens)”, for which the MIC was found to be 12.5 µg/mL in the assay with E. coli DH5α; 50 µg/mL against E. coli BL21; 25 µg/mL against Pseudomonas aeruginosa; 12.5 µg/mL in the assay on Klebsiella pneumonia; 25 µg/mL against Enterobacter cloacae; 50 µg/mL with Aeromonas hydrophila. Besides, the MIC in the assay on Citrobacter diversus came out at 12.5 µg/mL; in the assay with Moraxella catarrhalis it was 12.5 µg/mL; against Proteus mirabilis it was 12.5 µg/mL; in the assay on Proteus vulgaris, 25 µg/mL; in the assay on Serratia marcescens, 12.5 µg/mL.
